According to PubChem BioAssay AID686979 (National Center for Advancing Translational Sciences (NCATS), 2013):
Among all 420,000 compounds or so, about 50,000 (12%) were called active. Inconclusive means that the source gave no clear call. Such entries were picked first, then a sample of the others. Calls follow the shape of the dose curve; as a rule, active = well fitted inhibition curve with a large enough effect; inconclusive = small, poorly fitted or top-dose-only effect; inactive = flat fitted curve, though single readings scatter. No potency is given beside an inconclusive call; the fits are too rough.

Assay: qHTS for Inhibitors of human tyrosyl-DNA phosphodiesterase 1 (TDP1): qHTS in cells in presence of CPT; also: nearly all actives have a fitted effect of over 55% in size
Settings: chicken DT40 Tdp1-/-;hTDP1 cells + 20 nM CPT, ATP luminescence, 48 h; activity change, negative = growth inhibition: at 46.2 µM (top of the series) unless noted
How it was run: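 Chicken DT40 Tdp1-/- cells stably complemented with human TDP1 were seeded at 400 cells/well in medium containing 20 nM camptothecin, exposed to pin-transferred compounds, and grown at 37 °C for at least 48 hr. Viability was read as ATP luminescence.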
% is scaled to controls: 0 for no effect and ±100 for the full control effect; potency is read from the fitted curve at half-maximal effect; tags tell the direction and shape of the fitted curve.

Question: Which Potency does the source give for `CCc1ccc(OCC(=O)N2c3ccccc3CCc3ccccc32)cc1` here?
Answer: Its Potency is inconclusive [inhibitor, single point].

Question: Which Potency does the source give for `O=c1oc(CCCO)cc2ccc(C#Cc3ccsc3)cc12` here?
Answer: The Potency was inconclusive [inhibitor, single point].

Question: For `Cc1ccccc1-n1c(SCC(=O)Nc2ccc(Cl)cc2F)nnc1-c1cc2occc2n1C`, which Potency is on record?
Answer: The Potency was inconclusive [inhibitor, single point].

Question: With `COc1ccc(N2CCN(CC(O)COC(c3ccc(F)cc3)c3ccc(F)cc3)CC2)cc1` (configuration not stated) as the compound, how does the Potency read?
Answer: The Potency was active: 18.4 µM.

Question: Which Potency does the source give for `O=C(c1cccc(F)c1)N1CCC2(CCCN(Cc3ccccc3)C2)CC1` here?
Answer: Its Potency is “inactive”.

Question: For `CC(=O)NCCc1nc2ccccc2n1CCOc1cccc(C)c1`, which Potency is on record?
Answer: The Potency was inconclusive [inhibitor, partial curve, poor fit].

Question: Which Potency does the source give for `Cc1ccc(CN2CCc3nc(N4CCN(c5ncccn5)CC4)ncc3C2)cc1` here?
Answer: Its Potency is inconclusive [inhibitor, single point].

Question: With `COc1ccc(-c2cc(C(=O)Nc3ccc(O)cc3)c3ccccc3n2)cc1OC` as the compound, how does the Potency read?
Answer: Its Potency is active: 10.3 µM.

Question: Which Potency does the source give for `COc1ccc(C2=CC(c3ccc(F)cc3)n3ncc(C(=O)Nc4ccc(C)cc4)c3N2)cc1` (configuration not stated) here?
Answer: The Potency was inconclusive [inhibitor, single point].

Question: With `Cc1ccc(C)n1-c1nnc(N2CCCC(C(=O)NCc3ccc(Cl)cc3)C2)s1` (configuration not stated) as the compound, how does the Potency read?
Answer: The Potency was inconclusive [inhibitor, single point].

Question: Which Potency does the source give for `CCOc1ccccc1CNS(=O)(=O)c1ccc2c(c1)CCCN2C(C)=O` here?
Answer: Its Potency is inconclusive [inhibitor, single point].

Question: Which Potency does the source give for `Cc1ccc(/C=C/C(=O)OCC(=O)Nc2cccnc2Cl)cc1` here?
Answer: The Potency was “inactive”.

Question: For `CCc1ccc(CNC(=O)c2sc3ncccc3c2-n2c(C)ccc2C)cc1`, which Potency is on record?
Answer: Its Potency is active: 14.6 µM.

Question: For `Cc1ccc(-c2nc3cc(C(C)C)ccc3o2)cc1NC(=O)c1cc2ccccc2o1`, which Potency is on record?
Answer: Its Potency is inconclusive [inhibitor, partial curve].

Question: For `O=C(COC(=O)Cc1ccccc1)NCc1ccc2c(c1)OCO2`, which Potency is on record?
Answer: The Potency was “inactive”.

Question: Which Potency does the source give for `CCCn1c(SCC(=O)NC2CCCCC2)nnc1-c1ccncc1` here?
Answer: The Potency was active: 29.1 µM.

Question: Which Potency does the source give for `CC1CCN(C(=O)c2ccc3c(c2)NC(=O)/C(=C/c2ccccc2)S3)CC1` here?
Answer: Its Potency is inconclusive [inhibitor, single point].

Question: Which Potency does the source give for `O=C(CCCOc1ccccc1)NC(=S)Nc1ccccc1` here?
Answer: The Potency was inconclusive [inhibitor, single point].

Question: For `Cc1ccc(N(CC(=O)NCCc2ccc(Cl)cc2)S(=O)(=O)N(C)C)cc1`, which Potency is on record?
Answer: Its Potency is inconclusive [inhibitor, single point].

Question: With `Cc1cc(NC(=O)c2cccc(S(=O)(=O)N3CCC(C)CC3)c2)no1` as the compound, how does the Potency read?
Answer: The Potency was inconclusive [inhibitor, single point].

Question: For `Fc1ccc(NC(=S)Nc2cc(-c3ccccc3)[nH]n2)cc1Cl`, which Potency is on record?
Answer: The Potency was inconclusive [inhibitor, single point].

Question: With `O=C(Cn1cc(COc2ccc(Br)cc2[N+](=O)[O-])nn1)c1ccc(O)cc1` as the compound, how does the Potency read?
Answer: The Potency was inconclusive [inhibitor, single point].

Question: With `Cc1cc(C(=O)CN2C(=O)c3ccccc3C2=O)c(C)n1Cc1cccs1` as the compound, how does the Potency read?
Answer: The Potency was inconclusive [inhibitor, single point].

Question: For `O=C(N/N=C/c1c(Cl)nc2ccccn2c1=O)c1cccnc1`, which Potency is on record?
Answer: Its Potency is inconclusive [inhibitor, single point].

Question: With `CCOC1=C2[C@@H](CN(S(=O)(=O)c3ccc(C)cc3)[C@H]2c2cccc3ccccc23)[C@H]2C(=O)NC(=O)[C@H]2C1` as the compound, how does the activity change, negative = growth inhibition read?
Answer: Its activity change, negative = growth inhibition is inconclusive: -33.2% [inhibitor].

Question: Which Potency does the source give for `O=C(CCSc1nc(-c2ccco2)cc(C(F)(F)F)n1)Nc1cccc(O)c1` here?
Answer: The Potency was inconclusive [inhibitor, single point].

Question: Which Potency does the source give for `Cc1[nH]c2ccccc2c1C(=O)C(=O)NCc1nnnn1-c1ccc(F)c(F)c1` here?
Answer: Its Potency is “inactive”.

Question: Which Potency does the source give for `COc1cccc(Nc2ncnc3ccc(Br)cc23)c1` here?
Answer: The Potency was inconclusive [inhibitor, single point].

Question: With `COc1cccc(NC(=O)CSc2nc3c(oc4ccccc43)c(=O)n2Cc2ccco2)c1` as the compound, how does the Potency read?
Answer: The Potency was active: 9.2 µM.

Question: For `CC(NS(=O)(=O)c1ccccc1)C(c1cccs1)N1CCN(C)CC1` (configuration not stated), which Potency is on record?
Answer: Its Potency is “inactive”.

Question: With `COC(=O)CCSCC(=O)N1N=C(c2ccc(OC)cc2)CC1c1cccc(OC)c1OC` (configuration not stated) as the compound, how does the Potency read?
Answer: Its Potency is inconclusive [inhibitor, single point].

Question: For `CN(/N=C/c1c[nH]c2ccccc12)c1cnn(-c2ccc(F)c(Cl)c2)c(=O)c1Cl`, which Potency is on record?
Answer: The Potency was active: 25.9 µM.

Question: Which Potency does the source give for `CCOc1ccccc1N(CC(=O)Nc1ccccc1C(=O)OC)S(C)(=O)=O` here?
Answer: Its Potency is “inactive”.

Question: Which Potency does the source give for `COc1cccc(S(=O)(=O)Nc2cccnc2)c1` here?
Answer: The Potency was inconclusive [inhibitor, full curve, poor fit].

Question: For `CC(=O)Nc1ccc(C(=O)CSc2cc(C)c3cccc(C)c3n2)cc1`, which Potency is on record?
Answer: The Potency was inconclusive [inhibitor, single point].

Question: For `NS(=O)(=O)c1ccc(S(=O)(=O)N2CCN(c3nc(-c4ccccc4)nc4ccccc34)CC2)cc1`, which Potency is on record?
Answer: Its Potency is inconclusive [inhibitor, single point].

Question: For `NNC(=O)c1ccc(COc2cccc3ccccc23)o1`, which Potency is on record?
Answer: Its Potency is inconclusive [inhibitor, single point].

Question: Which Potency does the source give for `COc1cccc(C(=O)N2CCN(Cc3ccccc3Br)CC2)c1` here?
Answer: Its Potency is inconclusive [inhibitor, partial curve].

Question: With `COc1cc(-c2noc(CN3CCN(c4ccccc4)CC3)n2)cc(OC)c1OC` as the compound, how does the Potency read?
Answer: The Potency was inconclusive [inhibitor, partial curve, poor fit].

Question: Which Potency does the source give for `COc1ccccc1[C@@H]1C(c2ccccc2)=NN(c2ccccc2)[C@H]1C(=O)N1CCOC1=O` here?
Answer: The Potency was inconclusive [inhibitor, single point].

Question: Which Potency does the source give for `COc1ccc(NC(=O)C2CC(c3c(F)cccc3Cl)=NO2)cc1` (configuration not stated) here?
Answer: The Potency was “inactive”.

Question: For `O=C(COC(=O)C1CCN(S(=O)(=O)c2c(Cl)cccc2Cl)CC1)NCc1ccco1`, which Potency is on record?
Answer: Its Potency is “inactive”.

Question: With `CCOc1ccc2nc(N/C(N)=N/S(=O)(=O)c3ccc(C)cc3)nc(C)c2c1` as the compound, how does the Potency read?
Answer: The Potency was inconclusive [inhibitor, single point].

Question: For `COc1cc(OC)c(OC)cc1/C=C1/C(=O)N=C(N)N1C`, which Potency is on record?
Answer: Its Potency is inconclusive [inhibitor, single point].

Question: With `CC1=CC(C)(C)Nc2ccc(OC(=O)CCN3C(=O)c4ccccc4C3=O)cc21` as the compound, how does the Potency read?
Answer: The Potency was active: 3.26 µM.

Question: Which Potency does the source give for `Cc1cn2c(=O)cc(COC(=O)c3cccc(NC(=O)COc4ccccc4Cl)c3)nc2s1` here?
Answer: The Potency was inconclusive [inhibitor, single point].

Question: For `CC1(Oc2cccc(F)c2)CCN(Cc2ccc(-c3ccccn3)cc2)C1` (configuration not stated), which Potency is on record?
Answer: The Potency was inconclusive [inhibitor, single point].

Question: Which Potency does the source give for `Cc1ccc2c(c1)C1CN(C)CCC1N2C(=S)NC(=O)c1ccc(Br)cc1` (configuration not stated) here?
Answer: The Potency was active: 9.2 µM.

Question: With `COc1cc(OC)cc(C(=O)Oc2c(Sc3ccccc3)c(C)nn2C(C)(C)C)c1` as the compound, how does the Potency read?
Answer: Its Potency is inconclusive [inhibitor, partial curve].

Question: With `CCC1=Nc2cc(C(=O)NCC3CCCO3)ccc2Sc2ccc(Br)cc21` (configuration not stated) as the compound, how does the Potency read?
Answer: The Potency was active: 3.66 µM.

Question: Which Potency does the source give for `CCc1ccc(C2c3c(-c4ccccc4O)n[nH]c3C(=O)N2Cc2ccncc2)cc1` (configuration not stated) here?
Answer: The Potency was active: 14.6 µM.

Question: For `CNC(=S)NNC(=O)Cc1ccc(OC)cc1`, which Potency is on record?
Answer: The Potency was “inactive”.

Question: Which Potency does the source give for `CCCN(CCC)C(=O)c1ccccc1C(=O)N(CCC)CCC` here?
Answer: Its Potency is inconclusive [inhibitor, partial curve].

Question: With `Cc1c(Cl)cccc1NS(=O)(=O)c1c(C(=O)N2CCOCC2)c(C)n(C)c1C` as the compound, how does the Potency read?
Answer: The Potency was “inactive”.

Question: With `COc1ccc(NC(=O)CSc2nnc(C3CC3)n2C)cc1` as the compound, how does the Potency read?
Answer: Its Potency is inconclusive [inhibitor, single point].

Question: Which Potency does the source give for `CC(C)Cn1cnc2c1c(=O)n(CC(O)c1ccccc1)c(=O)n2CC(C)C` (configuration not stated) here?
Answer: Its Potency is “inactive”.

Question: For `Cc1ccc(CNC(=O)CSCc2cccc(F)c2)cc1`, which Potency is on record?
Answer: Its Potency is inconclusive [inhibitor, single point].

Question: With `CCOC(=O)c1ccccc1NC(=O)N1CCc2c(sc(C)c2CC)C1c1ccccc1` (configuration not stated) as the compound, how does the Potency read?
Answer: Its Potency is inconclusive [inhibitor, single point].

Question: Which Potency does the source give for `Cc1ccc(C)c(-c2ccc(=O)n(Cc3cccc(Br)c3)n2)c1` here?
Answer: The Potency was “inactive”.

Question: With `CCOC(=O)[C@]12CCCC=C1N(Cc1ccc(Cl)cc1Cl)C(=O)[C@H](CC(=O)NCCCCc1ccccc1)C2` as the compound, how does the Potency read?
Answer: Its Potency is inconclusive [inhibitor, single point].

Question: With `CC(C)Cn1c(O)c(/C=C2\C=NN=C2c2ccccc2)sc1=S` as the compound, how does the Potency read?
Answer: Its Potency is inconclusive [inhibitor, single point].

Question: With `CCOC(=O)c1c(-c2ccccc2)nc2ccc(Cl)cn12` as the compound, how does the Potency read?
Answer: Its Potency is inconclusive [inhibitor, single point].

Question: For `O=C(Nc1cccs1)Nc1cc(C(F)(F)F)ccc1Cl`, which Potency is on record?
Answer: The Potency was inconclusive [inhibitor, single point].

Question: Which Potency does the source give for `CCOc1ccc(OCCN2C(=O)NC(Cc3c[nH]c4ccccc34)C2=O)cc1` (configuration not stated) here?
Answer: Its Potency is inconclusive [inhibitor, single point].

Question: Which Potency does the source give for `Cc1cc(C)c(NC(=O)C2CCN(c3nc4ccccc4[nH]3)CC2)c(C)c1` here?
Answer: Its Potency is inconclusive [inhibitor, partial curve].

Question: For `CCOc1ccc(-n2c(Cc3ccccc3)nnc2SCc2nc(-c3ccccc3OC)no2)cc1`, which Potency is on record?
Answer: Its Potency is inconclusive [inhibitor, single point].

Question: With `O=S(=O)(c1ccccc1C(F)(F)F)N1CCN(CC(O)COc2ccccc2F)CC1` (configuration not stated) as the compound, how does the Potency read?
Answer: The Potency was inconclusive [inhibitor, single point].
